# Test results reported in US20250243260A1 (ALPINE IMMUNE SCIENCES, published 2025).
# B1: CD80_177 variant CD80 IgV-Fc (E10G, V11W, V22S, T28P, A71G, E81K, Y87R) (Fc fusion)
# chain: VIHVTKEVKGWATLSCGHNVSSEELAQPRIYWQKEKKMVLTMMSGDMNIWPEYKNRTIFDITNNLSIVILGLRPSDEGTYKCVVLKREKDAFKREHLAEVTLSVKADGSGGGGS[omitted - human IgG4 Fc with S228P (EU numbers)]
# notes: also called CD80_177-Fc
# B2: CD80_186 variant CD80 IgV-Fc (E7K, V11W, N63H, A71G, Y87K) (Fc fusion)
# chain: VIHVTKKVKEWATLSCGHNVSVEELAQTRIYWQKEKKMVLTMMSGDMNIWPEYKNRTIFDITHNLSIVILGLRPSDEGTYECVVLKKEKDAFKREHLAEVTLSVKADGSGGGGS[omitted - human IgG4 Fc with S228P (EU numbers)]
# notes: also called CD80_186-Fc
# B3: CD80_178 variant CD80 IgV-Fc (V11Y, T28Y, L85E, Y87I) (Fc fusion)
# chain: VIHVTKEVKEYATLSCGHNVSVEELAQYRIYWQKEKKMVLTMMSGDMNIWPEYKNRTIFDITNNLSIVILALRPSDEGTYECVVEKIEKDAFKREHLAEVTLSVKADGSGGGGS[omitted - human IgG4 Fc with S228P (EU numbers)]
# notes: also called CD80_178-Fc
# B4: CD80_188 variant CD80 IgV-Fc (E35D, V68L, L85E) (Fc fusion)
# chain: VIHVTKEVKEVATLSCGHNVSVEELAQTRIYWQKDKKMVLTMMSGDMNIWPEYKNRTIFDITNNLSILILALRPSDEGTYECVVEKYEKDAFKREHLAEVTLSVKADGSGGGGS[omitted - human IgG4 Fc with S228P (EU numbers)]
# notes: also called CD80_188-Fc
# B5: CD80_180 variant CD80 IgV-Fc (E10G, V11W, T28Y, M47L) (Fc fusion)
# chain: VIHVTKEVKGWATLSCGHNVSVEELAQYRIYWQKEKKMVLTMMSGDLNIWPEYKNRTIFDITNNLSIVILALRPSDEGTYECVVLKYEKDAFKREHLAEVTLSVKADGSGGGGS[omitted - human IgG4 Fc with S228P (EU numbers)]
# notes: also called CD80_180-Fc
# B6: CD80_181 variant CD80 IgV-Fc (K9S, E10R, V11Y, M47L, A71G) (Fc fusion)
# chain: VIHVTKEVSRYATLSCGHNVSVEELAQTRIYWQKEKKMVLTMMSGDLNIWPEYKNRTIFDITNNLSIVILGLRPSDEGTYECVVLKYEKDAFKREHLAEVTLSVKADGSGGGGS[omitted - human IgG4 Fc with S228P (EU numbers)]
# notes: also called CD80_181-Fc
# B7: CD80_193 variant CD80 IgV-Fc (V11Y, M42W, T62A, L85E) (Fc fusion)
# chain: VIHVTKEVKEYATLSCGHNVSVEELAQTRIYWQKEKKMVLTWMSGDMNIWPEYKNRTIFDIANNLSIVILALRPSDEGTYECVVEKYEKDAFKREHLAEVTLSVKADGSGGGGS[omitted - human IgG4 Fc with S228P (EU numbers)]
# notes: also called CD80_193-Fc
# B8: CD80_179 variant CD80 IgV-Fc (H18F, M42G, F59Y, V68N) (Fc fusion)
# chain: VIHVTKEVKEVATLSCGFNVSVEELAQTRIYWQKEKKMVLTGMSGDMNIWPEYKNRTIYDITNNLSINILALRPSDEGTYECVVLKYEKDAFKREHLAEVTLSVKADGSGGGGS[omitted - human IgG4 Fc with S228P (EU numbers)]
# notes: also called CD80_179-Fc
# B9: CD80_189 variant CD80 IgV-Fc (E10G, V11W, M47V, L85E) (Fc fusion)
# chain: VIHVTKEVKGWATLSCGHNVSVEELAQTRIYWQKEKKMVLTMMSGDVNIWPEYKNRTIFDITNNLSIVILALRPSDEGTYECVVEKYEKDAFKREHLAEVTLSVKADGSGGGGS[omitted - human IgG4 Fc with S228P (EU numbers)]
# notes: also called CD80_189-Fc
# B10: CD80_187 variant CD80 IgV-Fc (V11Y, H18Y, E35G, L85Q) (Fc fusion)
# chain: VIHVTKEVKEYATLSCGYNVSVEELAQTRIYWQKGKKMVLTMMSGDMNIWPEYKNRTIFDITNNLSIVILALRPSDEGTYECVVQKYEKDAFKREHLAEVTLSVKADGSGGGGS[omitted - human IgG4 Fc with S228P (EU numbers)]
# notes: also called CD80_187-Fc
# B11: CD80_182 variant CD80 IgV-Fc (E10G, V11W, E35G, M47L, A71G, Y87R) (Fc fusion)
# chain: VIHVTKEVKGWATLSCGHNVSVEELAQTRIYWQKGKKMVLTMMSGDLNIWPEYKNRTIFDITNNLSIVILGLRPSDEGTYECVVLKREKDAFKREHLAEVTLSVKADGSGGGGS[omitted - human IgG4 Fc with S228P (EU numbers)]
# notes: also called CD80_182-Fc
# B12: CD80_183 variant CD80 IgV-Fc (V11Y, T28Y, M47L, A71G, Y87R) (Fc fusion)
# chain: VIHVTKEVKEYATLSCGHNVSVEELAQYRIYWQKEKKMVLTMMSGDLNIWPEYKNRTIFDITNNLSIVILGLRPSDEGTYECVVLKREKDAFKREHLAEVTLSVKADGSGGGGS[omitted - human IgG4 Fc with S228P (EU numbers)]
# notes: also called CD80_183-Fc
# B13: CD80_192 variant CD80 IgV-Fc (E7N, E35D, T101R) (Fc fusion)
# chain: VIHVTKNVKEVATLSCGHNVSVEELAQTRIYWQKDKKMVLTMMSGDMNIWPEYKNRTIFDITNNLSIVILALRPSDEGTYECVVLKYEKDAFKREHLAEVRLSVKADGSGGGGS[omitted - human IgG4 Fc with S228P (EU numbers)]
# notes: also called CD80_192-Fc
# B14: CD80_184 variant CD80 IgV-Fc (V11Y, A26Q, M47L, A71G, Y87R) (Fc fusion)
# chain: VIHVTKEVKEYATLSCGHNVSVEELQQTRIYWQKEKKMVLTMMSGDLNIWPEYKNRTIFDITNNLSIVILGLRPSDEGTYECVVLKREKDAFKREHLAEVTLSVKADGSGGGGS[omitted - human IgG4 Fc with S228P (EU numbers)]
# notes: also called CD80_184-Fc
# B15: CD80_190 variant CD80 IgV-Fc (T28Y, M47L) (Fc fusion)
# chain: VIHVTKEVKEVATLSCGHNVSVEELAQYRIYWQKEKKMVLTMMSGDLNIWPEYKNRTIFDITNNLSIVILALRPSDEGTYECVVLKYEKDAFKREHLAEVTLSVKADGSGGGGS[omitted - human IgG4 Fc with S228P (EU numbers)]
# notes: also called CD80_190-Fc
# B16: CD80_191 variant CD80 IgV-Fc (V11Y, T28Y, M47L, V68L, L85E) (Fc fusion)
# chain: VIHVTKEVKEYATLSCGHNVSVEELAQYRIYWQKEKKMVLTMMSGDLNIWPEYKNRTIFDITNNLSILILALRPSDEGTYECVVEKYEKDAFKREHLAEVTLSVKADGSGGGGS[omitted - human IgG4 Fc with S228P (EU numbers)]
# notes: also called CD80_191-Fc
# Molecular target: T1, human CTLA-4 (human, UniProt P16410 36-223)
# T1 construct: whole, on cells; also called CHO/CTLA-4 cells
# Assay: flow cytometry on CHO/CTLA-4 cells
# Method: Binding affinity to CD28 was determined using primary human T cells which endogenously express CD28. Binding to PD-L1 was determined using SCC152 cells transduced with human PD-L1. Binding to CTLA-4 was measured using Chinese hamster ovary (CHO) cells stably transduced to express human CTLA-4.
# For staining and analysis by flow cytometry, 75,000 human T cells, SCC152/PD-L1 cells, or CHO/CTLA-4 cells were plated in 96-well round-bottom plates. Cells were spun down and resuspended in staining buffer (PBS (phosphate buffered saline), 1% BSA (bovine serum albumin), 1 mM EDTA, and 0.1% sodium azide) for 20 minutes to block non-specific binding. Afterwards, cells were centrifuged, stain buffer aspirated, and then resuspended in 50 μL of a 1:5 serial dilution of each CD80-Fc candidate variant starting at 100 nM ending at 0.8 nM. Primary staining was performed on ice for 60 minutes, before washing cells in […] staining buffer three times. PE-conjugated anti-human Fc (Jackson ImmunoResearch, USA) was diluted 1:250 in 50 μL staining buffer and added to cells and incubated another 30 minutes at 4° C. Cells were washed two times in 150 μL stain buffer and then fixed in 2% formaldehyde/PBS for 5 minutes at room temperature. Samples were analyzed CytoFLEX LX flow cytometer (Beckman Coulter, USA). Median Fluorescence Intensity (MFI) was calculated for each cell type using the CytExpert software from Beckman Coulter.
# T1 sequence (P16410 36-223): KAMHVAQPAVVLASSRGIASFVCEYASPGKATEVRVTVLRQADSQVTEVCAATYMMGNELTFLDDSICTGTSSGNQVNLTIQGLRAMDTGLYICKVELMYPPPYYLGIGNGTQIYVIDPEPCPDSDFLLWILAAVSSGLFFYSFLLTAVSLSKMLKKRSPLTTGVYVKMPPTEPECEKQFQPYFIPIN
Binder,MFI at 0.8 nM [MFI],MFI at 4 nM [MFI],MFI at 20 nM [MFI],MFI at 100 nM [MFI],fold change vs WT CD80 at 20 nM [fold]
B1,2960,11100,36900,127000,0.04
B2,332000,575000,645000,634000,0.78
B3,495,956,3030,10800,0
B4,195000,352000,490000,525000,0.59
B5,310000,452000,512000,534000,0.62
B6,45700,136000,365000,547000,0.44
B7,13600,43400,149000,399000,0.18
B8,660,1620,6680,25300,0.01
B9,3630,13100,46800,131000,0.06
B10,242000,571000,616000,614000,0.74
B11,320000,435000,481000,497000,0.58
B12,363000,498000,538000,587000,0.65
B13,291000,503000,591000,577000,0.71
B14,329000,523000,585000,595000,0.71
B15,300000,468000,544000,538000,0.66
B16,7800,27500,59000,254000,0.07
